The campaign covered roughly 43,000 compounds. About 200 (0.47%) were called active. Not shown: some 12% with an inconclusive outcome. Calls follow the shape of the dose curve; as a rule, active = well fitted cell-killing curve with a large enough effect; inconclusive = small, poorly fitted or top-dose-only effect, or effect the other way; inactive = flat fitted curve, though single readings scatter. Some of the results follow.
Assay: Cell viability qHTS assay in S16 Pmp22-F2sN cells; also: nearly all actives have a fitted effect of over 65% in size
Conditions: S16 Pmp22-F2sN Schwann cells (luciferase reporters placed in the Pmp22 gene) viability, CellTiter-Glo, 24 h; series mostly up to 57.5 µM; activity change, negative = cytotoxicity: at the top concentration
Method in brief: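 Luminescence from CellTiter-Glo, read by CCD camera after a 15 min room-temperature incubation, served as the viability signal. Reporter Schwann cells (S16 Pmp22-F2sN) had been treated with pin-transferred compounds for 24 h at 37C.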
% is scaled to controls: 0 for no effect and ±100 for the full control effect.

SMILES	activity change, negative = cytotoxicity
Cc1c(C(=O)N2CCC(C)CC2)c(S(=O)(=O)NCc2ccc(Br)cc2)c(C)n1C	inactive: 2.31%
CCCCc1nc2ccccc2n2c(-c3ccc(OC)cc3)c3c(=O)n(C)c(=O)n(C)c3c12	inactive: -0.294%
COc1cc2c(cc1OC)C(COc1ccc(F)cc1)N(C(=O)c1ccc(S(=O)(=O)N3CCCC3)cc1)CC2 (configuration not stated)	inactive: 1.2%
COc1cc(C2CC(=O)N(Cc3ccc(F)cc3)c3ccccc3S2)cc(OC)c1OC (configuration not stated)	inactive: -22.2%
COC(=O)c1cc(NC(=O)[C@H](CCS(C)(=O)=O)N2Cc3ccccc3C2=O)cc(C(=O)OC)c1	inactive: 7.99%
CCc1ccc(-c2nc3cc(NC(=O)c4cc5ccccc5cc4OC)ccc3o2)cc1	inactive: 6.54%
CCc1cc(C(=O)NC(C)c2ccccc2)no1 (configuration not stated)	inactive: -3.85%
Cc1cccc(NC(=O)c2c(C)cc(C)nc2SCC(=O)Nc2c(C)cc(C)cc2C)c1	inactive: -11.7%
CC(=O)Nc1ccc(NC(=O)c2ccc(COc3ccc(Cl)cc3Cl)o2)cc1	inactive: -2.2%
CCOc1ccc(-c2cc(-c3nc(-c4cc(OC)c(OC)c(OC)c4)no3)[nH]n2)cc1Cl	inactive: 15.4%
Cc1ccc(-n2nc(CO)c(C(=O)NCc3cccs3)n2)cc1C	inactive: -8.87%
COC(=O)c1ccccc1NC(=O)c1ccc2nc(Cc3ccccc3)oc2c1	inactive: 2.66%
CCOC(=O)c1ccc(NC(=O)CSc2nnc(CNC(=O)c3ccc(OC)cc3)n2CC)cc1	inactive: 12.8%
Cn1c(=O)oc2cc(S(=O)(=O)N3CCC(C(=O)NCc4ccc(F)cc4)CC3)ccc21	inactive: 0.473%
COc1ccc(Nc2nc3cc(Cl)c(Cl)cc3n3cnnc23)cc1Cl	inactive: -5.31%
O=C(Nc1nnc(S(=O)(=O)N2CCCC2)s1)c1ccccc1Br	inactive: -8.39%
COc1cc(N2C(=O)CSC23C(=O)N(Cc2ccc(C)cc2)c2ccccc23)cc(OC)c1OC (configuration not stated)	inactive: -4.71%
Cc1ccc2c(c1)N(C(=O)CCC(=O)NCc1cccs1)CCO2	inactive: 2.11%
Cc1ccc(C)c(CN2C(=O)c3ccccc3S(=O)c3ccc(C(=O)N4CCN(c5ccccc5F)CC4)cc32)c1 (configuration not stated)	inactive: 11.7%
COc1ccc(N2CCN(S(=O)(=O)c3ccc4c(c3)CCCN4C(C)=O)CC2)cc1	inactive: -7.12%
CC1CCN(CCCNC(=O)c2cn(C)c3ccc(S(=O)(=O)N(C)C4CCCCC4)cc3c2=O)CC1	inactive: 14.2%
COc1cc2c(cc1OC)C(COc1ccc(C(C)C)cc1)N(C(=O)c1ccc(S(=O)(=O)N3CCCC3)cc1)CC2 (configuration not stated)	inactive: 1.62%
CCOC(=O)c1c(NC(=O)c2cc(=O)c3cc(Cl)ccc3o2)sc(C)c1C	inactive: 1.41%
COc1ccc(N2C(=O)C(CC(=O)Nc3ccc(Cl)cc3)N(Cc3ccc4c(c3)OCO4)C2=O)cc1 (configuration not stated)	inactive: -11.9%

SMILES	activity change, negative = cytotoxicity
COc1ccc(NC(=O)CCc2nc3cccnc3n2-c2ccccc2)c(OC)c1	inactive: -0.144%
CCN1CCN(C(c2ccc(C)cc2)c2sc3nc(-c4ccco4)nn3c2O)CC1 (configuration not stated)	inactive: 0.191%
CCOc1ccc(CCNC(=O)CSc2nnnn2-c2ccccc2Cl)cc1OCC	inactive: -2.56%
COCCn1c(=N)c(C(=O)NCC2CCCO2)cc2c(=O)n3ccccc3nc21 (configuration not stated)	inactive: 14.2%
Cc1ccc(C)c(N2CCN(C(=O)CN3CCSc4ccccc43)CC2)c1	inactive: 6.71%
Cc1cccc(-c2nc(SCc3cc(=O)c4cccc(F)c4[nH]3)n[nH]2)c1	inactive: -26.3%
O=C(NCCS(=O)(=O)N1CCN(c2ccccc2F)CC1)c1ccccc1C(F)(F)F	inactive: -16%
COc1cccc(CNC(=O)Cn2c(=O)cc(C(F)(F)F)c3c(C)nn(C)c32)c1OC	inactive: -6.88%
CCOC(=O)c1ccc2c(c1)sc1nc(-c3ccc(OCC)cc3)cn12	inactive: 1.3%
CCN(CC)CCCNC(=O)c1c2c(nc3ccccc13)C(=O)N(C1CCCCC1)C2	inactive: 3.57%
Cc1c(-c2ccc(Cl)cc2)c(=O)oc2c(CN3CCN(C)CC3)c(O)ccc12	inactive: -7.94%
Cc1ccc(C)c(N(C)C(=O)CCNC(=O)Cn2cnc3ccccc3c2=O)c1	inactive: 3.31%
CC(C)CC(=O)Nc1nnc(S(=O)(=O)N(C)c2ccc(Cl)cc2)s1	inactive: -1.85%
CC(C)c1nn2c(=O)cc(COC(=O)c3cccc(NC(=O)c4ccccc4F)c3)nc2s1	inactive: 6.75%
CCC1Oc2ccc(C)cc2N(CC(=O)NCc2ccc(F)cc2)C1=O (configuration not stated)	inactive: -0.177%
O=C(Nc1cccc(Cl)c1)C(Cc1ccccc1)n1cccc1 (configuration not stated)	inactive: 12.8%
CC1CCc2c(sc3nc(-c4cc5ccccc5oc4=O)nc(Cl)c23)C1 (configuration not stated)	inactive: 6.44%
CCOC(=O)C1CCCN(C(=O)c2cc3c(Cl)nc4ccccc4c3s2)C1 (configuration not stated)	inactive: 7.91%
Cc1c(C(=O)N2CCCCCC2)c(S(=O)(=O)Nc2ccc(OC(F)(F)F)cc2)c(C)n1C	inactive: -10.9%
O=C1CC(c2ccccc2)Cc2[nH]c(=O)c(C(=O)Nc3ccc(F)cc3)cc21 (configuration not stated)	inactive: 4.55%
CCOc1ccc(CCNC(=O)CCCc2nnc3n(CCCOC)c(=O)c4sccc4n23)cc1	inactive: 21.5%
CCOC(=O)c1ccc(NC(=O)CSc2cc(-c3ccccc3)nc(C)n2)cc1	inactive: 4.14%
CC(=O)N1CCN(C(=O)C(=O)Nc2c3c(nn2-c2ccc(Cl)cc2)CSC3)CC1	inactive: -1.91%

From PubChem BioAssay AID1508642 (National Center for Advancing Translational Sciences (NCATS), 2021)
